The values that follow come from the supplement of paper PMC4604168 (melanoma cell lines).

The list shows a part of the results. Most values come without repeats; read them as rough.
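Further: cell number obtained by counting DAPI-stained nuclei in high-throughput microscope images with image analysis software, screen run in 1,536-well plates.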

This assay has as its system WM3526. Nature of the assay: cell count relative to DMSO control; melanoma cells; higher = more viable cells. The following applies: library dose: low library concentration; 72 h.
`CCc1ccc(CCOc2ccc(CC3SC(=O)NC3=O)cc2)nc1` (configuration not stated) [pioglitazone] + CCN(CC)CCCCNc1ncc2cc(-c3cc(OC)cc(OC)c3)c(NC(=O)NC(C)(C)C)nc2n1 [PD173074] (first compound 2 µM, partner dose 0.1 µM) had a cell count of 100%. For the molecule `CN(NC(=O)CC(=O)NN(C)C(=S)c1ccccc1)C(=S)c1ccccc1` + Cc1cc([N+](=O)[O-])ccc1NS(=O)(=O)c1cc(Cl)ccc1Cl [FH535] (first compound 0.006 µM, partner dose 1 µM), the cell count stood at 116%. The same measure for `CC(C)(C)c1cnc(CSc2cnc(NC(=O)C3CCNCC3)s2)o1` + CCCCCCCCCCCC1=C(O)C(=O)C=C(O)C1=O [Embelin] (first compound 0.01 µM, partner dose 1.2 µM): 113%; for `Cc1ccc(NC(=O)c2cccc(N(C)C)c2)cc1NC(=O)c1ccc(O)cc1` + O=C1NC(=O)/C(=C/c2ccc(-c3ccc(F)cc3O)o2)S1 [AS252424] (first compound 2 µM, partner dose 1 µM): 85.8%. With `CC(C)(C)c1cnc(CSc2cnc(NC(=O)C3CCNCC3)s2)o1` + CCN(CC)CCCCNc1ncc2cc(-c3cc(OC)cc(OC)c3)c(NC(=O)NC(C)(C)C)nc2n1 [PD173074] (first compound 0.01 µM, partner dose 0.1 µM) the figure was 105%; with `Cc1ccc(NC(=O)c2cccc(N(C)C)c2)cc1NC(=O)c1ccc(O)cc1` + COc1ccc(-c2ccc3c(N4CCOCC4)nc(N4C[C@@H](C)O[C@@H](C)C4)nc3n2)cc1CO [KU0063794] (first compound 2 µM, partner dose 0.02 µM), 82.7%; with `Cc1ccc(NC(=O)c2cccc(N(C)C)c2)cc1NC(=O)c1ccc(O)cc1` + O=C(Nc1ccccc1)c1cc([N+](=O)[O-])ccc1Cl [GW9662] (first compound 2 µM, partner dose 2 µM), 84.7%. As for `CCc1ccc(CCOc2ccc(CC3SC(=O)NC3=O)cc2)nc1` (configuration not stated) [pioglitazone] + COc1ccc(-c2ccc3c(N4CCOCC4)nc(N4C[C@@H](C)O[C@@H](C)C4)nc3n2)cc1CO [KU0063794] (first compound 2 µM, partner dose 0.02 µM), the cell count is 116%. As to `COc1cc2c(Oc3ccc4[nH]c(C)cc4c3F)ncnc2cc1OCCCN1CCCC1` [cediranib] + COC(=O)c1sccc1S(=O)(=O)Nc1ccc(Nc2ccccc2)cc1OC [GSK0660] (first compound 0.4 µM, partner dose 1 µM), the cell count worked out at 88.4%. Consider `CN(NC(=O)CC(=O)NN(C)C(=S)c1ccccc1)C(=S)c1ccccc1` + COc1ccc(-c2ccc3c(N4CCOCC4)nc(N4C[C@@H](C)O[C@@H](C)C4)nc3n2)cc1CO [KU0063794] (first compound 0.006 µM, partner dose 0.02 µM), for which the cell count worked out at 100%. With `CCc1ccc(CCOc2ccc(CC3SC(=O)NC3=O)cc2)nc1` (configuration not stated) [pioglitazone] + COc1ccc(COc2ccc(Cc3cnc(N)nc3N)cc2OC)cc1 [GW2580] (first compound 2 µM, partner dose 1 µM) the figure was 95.6%; with `Cc1ccc(NC(=O)c2cccc(N(C)C)c2)cc1NC(=O)c1ccc(O)cc1` + CCCCCCCCCCCC1=C(O)C(=O)C=C(O)C1=O [Embelin] (first compound 2 µM, partner dose 1.2 µM), 97.8%. With `Cc1ccc(NC(=O)c2cccc(N(C)C)c2)cc1NC(=O)c1ccc(O)cc1` + CCN(CC)CCCCNc1ncc2cc(-c3cc(OC)cc(OC)c3)c(NC(=O)NC(C)(C)C)nc2n1 [PD173074] (first compound 2 µM, partner dose 0.1 µM) the figure was 105%; with `CCc1ccc(CCOc2ccc(CC3SC(=O)NC3=O)cc2)nc1` (configuration not stated) [pioglitazone] + CCCCCCCCCCCC1=C(O)C(=O)C=C(O)C1=O [Embelin] (first compound 2 µM, partner dose 1.2 µM), 107%.

The molecule `COc1cc2c(Oc3ccc4[nH]c(C)cc4c3F)ncnc2cc1OCCCN1CCCC1` [cediranib] + CCCCCCCCCCCC1=C(O)C(=O)C=C(O)C1=O [Embelin] (first compound 0.4 µM, partner dose 1.2 µM) came in with a cell count of 111%. The same measure for `CC(C)(C)c1cnc(CSc2cnc(NC(=O)C3CCNCC3)s2)o1` + Cc1cc([N+](=O)[O-])ccc1NS(=O)(=O)c1cc(Cl)ccc1Cl [FH535] (first compound 0.01 µM, partner dose 1 µM): 77.2%. `CC(C)(C)c1cnc(CSc2cnc(NC(=O)C3CCNCC3)s2)o1` + N#Cc1c(O)c2c(-c3ccc(-c4ccccc4O)cc3)csc2[nH]c1=O [A769662] (first compound 0.01 µM, partner dose 2 µM) had a cell count of 112%.
